Test results: PubChem BioAssay AID1159614 (National Center for Advancing Translational Sciences (NCATS), 2016)
Out of some 45,000 compounds screened, about 65 (0.1%) were called active. Calls come from the whole dose curve; as a rule, active = well fitted activation curve with a large enough effect; inconclusive = small, poorly fitted or top-dose-only effect; inactive = no such curve, though single readings can be large or run the other way. The list shows a part of the results.

The compounds below were run against Galactocerebrosidase (Homo sapiens) (UniProt P54803) (assay: A Novel Cell-Based Assay to Identify Small Molecules for B -Galactocerebrosidase). Settings: 145M-Twi-hGALC-G270D cells (Twitcher mouse brain line with human GALC G270D), HMU-beta-Gal fluorescence, 48 h; series mostly up to 57.5 µM; activation: at the top concentration.
Sequence of UniProt P54803 (P54803 whole entry, looked up): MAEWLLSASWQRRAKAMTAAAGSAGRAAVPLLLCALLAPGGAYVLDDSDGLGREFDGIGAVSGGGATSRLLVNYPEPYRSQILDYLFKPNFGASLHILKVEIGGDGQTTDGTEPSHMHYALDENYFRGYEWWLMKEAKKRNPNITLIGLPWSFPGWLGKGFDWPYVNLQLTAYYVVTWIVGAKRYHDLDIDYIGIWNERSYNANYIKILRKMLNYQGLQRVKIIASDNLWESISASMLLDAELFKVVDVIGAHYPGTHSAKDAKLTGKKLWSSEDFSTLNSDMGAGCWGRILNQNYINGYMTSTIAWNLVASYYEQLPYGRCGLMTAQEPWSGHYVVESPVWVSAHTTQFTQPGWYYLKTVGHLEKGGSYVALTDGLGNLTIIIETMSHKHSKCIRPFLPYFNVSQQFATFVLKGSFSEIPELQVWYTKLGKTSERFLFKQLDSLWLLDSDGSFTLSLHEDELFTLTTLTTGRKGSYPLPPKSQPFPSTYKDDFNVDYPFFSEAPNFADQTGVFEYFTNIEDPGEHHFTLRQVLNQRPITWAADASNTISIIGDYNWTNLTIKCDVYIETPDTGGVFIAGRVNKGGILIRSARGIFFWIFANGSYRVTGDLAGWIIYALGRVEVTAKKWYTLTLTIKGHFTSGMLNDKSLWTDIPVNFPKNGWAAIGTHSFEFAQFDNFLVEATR
Summary of the method: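 Brain-derived Twitcher mouse 145M-Twi cells stably expressing human GALC-G270D or wild-type GALC, treated live, then residual GALC activity read by fluorescence of HMU-b-Gal substrate (0.1 mM final) in citrate-phosphate buffer pH 5.2 with sodium taurocholate. Signal increase indicates enhancement.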
Note: 0% is about no effect; nearly all actives have a fitted effect of over 65% in size.

activation, inactive:
O=C(Nc1cccc(-c2nc3ccccc3o2)c1)C(F)(F)F -2.15%
Cc1ccc(-c2nc(C(=O)NCc3ccccc3Cl)c3n2CCCCC3)cc1 -5.69%
Cc1ccc(NC(=O)N2CCC(CN3CCCC3)CC2)c(C)c1 -4.56%
CCc1cccc(NC(=O)c2ccc(NC(=O)N3CCSc4ncccc43)cc2)c1 -9.94%
O=C(CCCc1ccccc1)NC1CC(=O)N(c2ccc(F)cc2)C1 (stereo unspecified) -4.47%
CC(=O)c1cccc(NS(=O)(=O)c2cc3c(cc2C)N(C(C)=O)CCO3)c1 -11.2%
COC(=O)c1cc(C)nc2c1c(=O)nc(SCc1ccccc1C)n2C1CC1 -26%
COC(=O)C1CCN(S(=O)(=O)c2ccc(N3CCCCS3(=O)=O)cc2)CC1 -17%
O=C1[C@H]2CCCC[C@H]2C(=O)N1CCCCN1CCN(c2nsc3ccccc23)CC1 -22%
Cc1cccc(NC(=O)C(Cc2ccccc2)NS(=O)(=O)c2ccc3c(c2)c(=O)n(C)c(=O)n3C)c1 (stereo unspecified) -10.7%
CCc1nn(CCCC(=O)N2CCN(c3cccc(OC)c3)CC2)c(=O)c2cc3occc3n12 3.16%
Cc1c(-c2nc(-c3ccc4c(c3)OCO4)no2)nnn1-c1ccc(C(C)C)cc1 -8.71%
Cc1ccc(C(=O)NCC(c2ccc3c(c2)OCO3)N2CCOCC2)cc1 (stereo unspecified) -4.88%
CCC(=O)Oc1ccc(C2Nc3ccccc3-c3nnc(SC)nc3O2)cc1 (stereo unspecified) -9.88%
Cc1ccc(NC(=O)N2CCN(c3cc(-c4noc(C)n4)ccc3C)CC2)c(F)c1 4.82%
Cc1ccc2nc(-c3cc(NC(=O)COc4ccc(C)c(C)c4)ccc3Cl)oc2c1 -22.5%
CN1N=C(C(N)=O)CCC1=O -18%
CCOC(=O)COc1ccc(F)cc1C(=O)c1ccn2nc(-c3ccc(Cl)cc3)cc2n1 -8.86%
CCOC(=O)c1noc2ncnc(Nc3cccc(OC)c3)c12 -12.5%
CCCn1c(=O)c2sccc2n2c(CCCC(=O)NCc3ccccc3)nnc12 0.974%
O=C(COc1ccccc1Cl)Nc1ccc2nc(SCC(=O)N3CCCC3)sc2c1 -7.48%
O=C(CCn1nc(-c2ccc(Cl)cc2)ccc1=O)NCCc1ccccc1 -4.42%
Cc1ccc(S(=O)Cc2nc(-c3ccc(C(=O)NCc4cccc(C)c4)cc3)oc2C)cc1 (stereo unspecified) -21%
CC(=O)Nc1c(C)nn(-c2ccccc2)c1N1CCC(C(=O)NCc2ccccc2Cl)CC1 -9.22%
CCOC(=O)c1c(NC(=O)CSc2cn(CCNC(=O)c3c(F)cccc3F)c3ccccc23)sc2c1CCC2 -8.84%
COc1ccc(CCN2C(=O)c3[nH]nc(-c4ccccc4O)c3C2c2ccc(OC)c(OC)c2)cc1 (stereo unspecified) -21.8%
Clc1cccc(Cl)c1NC1=NCCN1 -7.54%
COc1ccc(-c2cc(-c3ccccc3)nc(SCC(=O)Nc3ccccc3F)c2C#N)cc1 -17.4%
CCOc1ccc(-n2c(SCC(N)=O)nc3c(oc4ccccc43)c2=O)cc1 -22.9%
COc1cccc(NC(=O)CSc2nc(-c3ccccc3Cl)nc3c2Cc2c(CO)cnc(C)c2O3)c1 6.91%
CCOC(=O)C1=C(CS(=O)(=O)c2ccc(OC)c(Cl)c2)NC(=O)NC1c1cccc(OC)c1 (stereo unspecified) -8.55%
Cc1cc(=O)n(Cc2ccc(Cl)cc2)c2c1c(C)nn2-c1ccccc1 -7.81%
COc1ccc(OC)c(S(=O)(=O)NCCS(=O)(=O)N2CCN(c3ccccc3)CC2)c1 -8.12%
COc1cccc(CNC(=O)c2cccc(-n3c(C)nc4cccnc43)c2)c1OC -10.8%
O=C(Cn1c(=O)n(-c2ccccc2)c(=O)c2c3c(sc21)CCCC3)Nc1ccc(F)cc1F -1.8%
N#Cc1nc(-c2ccc(COc3ccc(Cl)cc3)o2)oc1N1CCC(C(N)=O)CC1 -19.2%
COc1ccc(OC)c(C2=NS(=O)(=O)N(C)C(C(=O)Nc3ccc(F)cc3F)=C2)c1 0.171%
O=C(CSc1cn(CC(=O)N2CCCCC2)c2ccccc12)Nc1ccccc1 -14.2%
Cc1ccc(C)c(NC(=O)C2CCCN(c3ncnc4onc(C)c34)C2)c1 (stereo unspecified) -9.43%
Cc1nc(-c2ccccc2)sc1-c1ccc(SCC(=O)NCc2ccccc2Cl)nn1 0.113%
O=C(NCc1noc2ccccc12)N1CCN(c2ccccc2)CC1 -9.62%
CCc1ccccc1NC(=O)N1CCCn2nc(C)cc21 -11.4%
O=C(NCC(c1ccco1)S(=O)(=O)c1cccs1)c1ccc(F)c(F)c1 (stereo unspecified) -10.6%
CCCOc1ccc(C2c3c(-c4c(C)cc(C)cc4O)n[nH]c3C(=O)N2CCO)cc1 (stereo unspecified) -7.87%
O=C(Cn1c(=O)n(Cc2ccccc2)c(=O)c2sc3ccccc3c21)Nc1ccccc1 -5.5%
CCOc1ccc(-c2cc3nc(C4CCN(C(=O)OC(C)(C)C)CC4)c(C(=O)Nc4cc(OC)ccc4OC)cn3n2)cc1 -16.3%
Cc1ccc(Cl)cc1NC(=O)c1sc(-n2nc(C)c(Cc3ccc4c(c3)OCO4)c2C)nc1C -9.85%
CCN1CCOC(=O)C1CC(=O)Nc1ccc(Br)cc1 (stereo unspecified) -14.4%
Cc1nn(C)c2c1c(-c1ccccc1)cc(=O)n2CC(=O)NC(C)c1ccccc1 (stereo unspecified) -19.7%
Cc1ccc(Cl)cc1NC(=O)Nc1cccc(OCc2cc(=O)n3ccccc3n2)c1 1.73%
COc1ccc(-n2c(-c3ccco3)nc3c(cnn3-c3ccccc3Cl)c2=O)cc1 20.4%
CCCCCn1c(CN2CCN(c3ccc(OC)cc3)CC2)nc2c1c(=O)[nH]c(=O)n2C -12.7%
CC(C)N(CCCNC(=O)Cn1ncc2c([nH]c3ccccc32)c1=O)Cc1ccccc1 -3.81%
COCCNC(=O)c1ccc2nc(Cc3ccccc3)oc2c1 -24.6%
Cc1cc(C)c2c(=O)cc(C(=O)Nc3sc4c(c3C(=O)NCC3CCCO3)CCCC4)oc2c1 (stereo unspecified) -2.31%
Cc1ccc(Nc2nnc(-c3ccc(C)c(S(=O)(=O)N4CCOCC4)c3)c3ccccc23)cc1 -20.6%
COc1ccc(C)cc1NC(=O)CC1NCCNC1=O (stereo unspecified) -4.27%
Cc1cc(=O)n(Cc2ccccc2)c2c1c(C)nn2C -17.9%
CC(=O)c1ccc(N2CCN(c3ccc4cc(S(=O)(=O)N5CCCCC5)ccc4n3)CC2)cc1 9.05%
COc1ccc(-c2nc(CS(=O)(=O)CC(=O)NCCc3ccc(C)cc3)c(C)o2)cc1 -26.1%
CCOC(=O)c1ccc(NC(=O)CSc2nc3ccccc3c(=O)n2CCC(=O)NC2CCCCC2)cc1 -15.4%
CCC(=O)C1=C(c2ccc(OC)c(OC)c2)N(C(=O)CC)n2c(nnc2-c2ccc(C)cc2)S1 -21.6%
COc1ccc(OC)c(CNS(=O)(=O)c2ccc(-c3coc(C)n3)cc2)c1 -9.54%
CC(=O)c1cc(-c2ccccc2)n(CC(=O)Nc2ccc(C)c(C)c2)c1C -6.09%
Cc1cc2nc(-c3ccc(NC(=O)c4ccccc4F)cc3)oc2cc1C 12.7%
COc1ccccc1-c1noc(-c2ccc(NC3CCCC3)c([N+](=O)[O-])c2)n1 -12.9%
COc1ccccc1-c1nc(SCC(=O)NCc2ccccc2)c2c(=O)n(C)c(=O)n(C)c2n1 -9.81%
CCOc1ccc(CNC(=O)CS(=O)(=O)c2cccc3nsnc23)cc1 -4.82%
COc1ccc(NC(=O)C(NS(=O)(=O)c2cccc3nsnc23)C(C)C)cc1 (stereo unspecified) -8.58%
COc1ccccc1CNc1nc2c(S(=O)(=O)c3ccc(C)c(C)c3)nnn2c2ccc(Cl)cc12 -6.21%
O=C(Cn1c(=O)oc2cc(S(=O)(=O)NCc3ccccc3)ccc21)Nc1cccc(F)c1 -3.7%
O=C(c1ccc(F)cc1)c1cn(Cc2ccccc2)c2cc3c(cc2c1=O)OCO3 -12.8%
CCOC(=O)c1c(NC(=O)c2cc(-c3ccc(Br)cc3)on2)sc(C(C)=O)c1C -19.1%
COc1ccc(NC(=O)c2cc3ccccc3o2)c(OC)c1 -10.2%
O=C(COc1ccccc1Cl)Nc1ccc(-c2nc3ccccc3s2)cc1 -12.2%
CC1CCCN(c2cc3c(cc2F)c(=O)c(S(=O)(=O)c2cccc(Cl)c2)cn3Cc2ccccc2)C1 (stereo unspecified) -16.9%
COc1ccc(C2=CC(c3cc(Br)ccc3F)n3c(nc4ccccc43)N2)cc1 (stereo unspecified) -7.46%
O=C(Nc1c(C(=O)N2CCN(c3ccccc3F)CC2)oc2ccccc12)c1cccc(F)c1 1.39%
Cc1oc(-c2ccc(C(=O)Nc3ccc(F)cc3)cc2)nc1COc1ccccc1 -15.5%
Cc1cccc(CS(=O)(=O)c2ncc(Cl)c(C(=O)Nc3nnc(C(C)C)s3)n2)c1 -6.72%
O=C(CCn1c(=O)c2cccn2c2cccnc21)N1CCN(c2cccc(C(F)(F)F)c2)CC1 -7.13%
CC(C)NC(=O)c1ccc(Cn2c(SCc3ccc(F)cc3)nc3cccnc32)cc1 4.45%
COc1ccc(CCNC(=O)C(=O)NCC(c2ccco2)S(=O)(=O)c2ccc(C)cc2)cc1 (stereo unspecified) 3%
COc1ccc(C(=O)/C=C/c2cn(CC(O)CN3CCc4ccccc43)c3ccccc23)cc1OC (stereo unspecified) -11.7%
CCC(C(=O)Nc1cc(C)ccc1C)n1c(=O)c(C(F)(F)F)nc2ccccc21 (stereo unspecified) -11.4%
COCc1nnc(NC(=O)c2cc(OC)c(OC)c(OC)c2)s1 -2.38%
COc1ccc(OC)c(/C=C/c2nc3ccccc3c(=O)n2-c2ccc(F)c(Cl)c2)c1 -8.71%
Cc1ccc(NC(=O)C2CCCN(S(=O)(=O)c3c(C)n[nH]c3C)C2)c(C)c1 (stereo unspecified) -9.69%
COc1cccc(CNS(=O)(=O)c2cnc(N)nc2)c1 -10.2%
COc1ccccc1CNC(=O)CCc1c(C)c2cc3c(C)c(C)oc3cc2oc1=O 3.77%
C=CCc1cccc2cc(-c3nc4ccc(C)cc4[nH]3)c(=O)oc12 -7.42%
CCOC(=O)c1ccc(NC(=O)Cn2cc(C(=O)C3CC3)c3ccccc32)cc1 -14.8%
COc1ccc(CCNC(=O)c2ccc3c(c2)N(Cc2ccc(F)cc2)C(=O)c2ccccc2S3(=O)=O)cc1OC -0.328%
COCC(=O)n1nc(-c2ccco2)nc1NCc1ccccc1Cl -11.8%
Nc1nc2c(ncn2COC(CO)CO)c(=O)[nH]1 -21.6%
COc1cc(OC)cc(C(=O)Nc2ccc(-c3nc4ccccc4s3)cc2C)c1 8.95%
